In the supplement of paper PMC10126150:
Sequences with one replicate were seen in a single cluster, so their values are uncertain.

Test system: ATP
Assay: switch fluorescence ratio, 500 uM ATP over buffer (Cy3 cluster intensity, sum of 5 cycles each) (fold (ratio)); higher = stronger signal-on switching upon ATP binding; sequences stand for … in TCGTCGGCAGCGTCAGATGTGTATAAGAGACAGTTTTTTTTTTTTTTTTTTTTTTTTT…TC
Conditions: aptamer strand: ATP DNA aptamer (quencher-CACCTGGGGGAGTATTGCGGAGGAAGG + anchor), 100 nM annealed; ATP concentration: 500 uM; one replicate
Summary of the method: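 For every switch-domain sequence, the fluorescence ratio is the mean of per-cluster values, each being summed target-cycle Cy3 intensity over summed buffer-cycle Cy3 intensity. Clusters outside 100-1000 RFU were excluded. On a modified Illumina MiSeq flow-cell, the Cy3-labelled switching-strand clusters were annealed to 100 nM quencher-labelled ATP aptamer, imaged in selection buffer and then after 15 min with 500 uM ATP at 22 °C. Five such cycles were run, with NaOH stripping and re-annealing between them.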
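Note: ATP exposure 15 min at 22 °C before imaging.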

Sequence | switch fluorescence ratio
ACTTGATTTA | 1.03
CGTATCCTGC | 0.966
GGAACGTACC | 1.73
CCTACCATTG | 1.24
GGGCCAGGCG | 1
GCCAATCTGT | 1.01
TGTCTTAAGA | 0.98
CATTCCGGCG | 1.63
CTGGAGCTTG | 1.09
AAAGATCCAG | 0.98
GCAGCGAAGC | 0.983
GCAGGAGAGT | 0.969
TTACTGGATT | 1.04
TTGAGGCTTC | 1.16
TCAGTAAAGA | 0.927
TAGCGGTGGA | 1.01
ATGAGGCTTG | 1.04
AAGACAGACA | 1.06
GCTTTAACGT | 0.997
GGTACTGAAA | 1.16
ATTTTGGTCA | 0.984
AAAGATTTAG | 0.981
CCGCATCTTT | 2.85

Sequence | switch fluorescence ratio
GGGCATGAAC | 0.996
CGCTGGCATC | 1.08
TCTTTGGCAA | 2.42
GGATTACTAT | 0.97
CAGGATGGC | 1.01
AGACTCTGC | 1.03
TGTGACACCC | 1.14
GACTCATTGT | 1
GCGGTTCGGC | 0.992
CTCTTCCAG | 1.07
AGGCTCTATG | 1.01
AGAACTCCTA | 0.997
AGGTAAGTTG | 1
TGGTGCAAAA | 0.991
TACATGATA | 0.999
TTTCCTTGTA | 1.02
ACGCAGGGGT | 1.15
GGGATTAAG | 1.05
CCTTTTAATT | 0.981
CTCATGGTAC | 1.57
GATGATGAG | 0.969
AGGGGTTGAT | 0.995
CCACTGCTGA | 1.57

Sequence | switch fluorescence ratio
GGGAGTAATC | 1.08
TTTCATCGCT | 1.1
AATTCGGGCC | 1.38
TACAGTTCCT | 1.05
AATTCGTCC | 1.07
GTTGCTTAAG | 0.958
AGAAGGTTGG | 0.976
AGAAGAGCCC | 1.05
GACTCGGGGT | 0.964
TCGCCGTAGG | 1.01
TTTTCCGCCT | 1.39
CCAATTTCGC | 1.02
ATACAGATCG | 1.03
GGTCGGGTGA | 0.975
CTTGAGTTCC | 1
CTAAGGCCCT | 1.01
CTCAGCGC | 1.05
ATCTGGGTA | 1
GAGCCCGGTT | 0.989
ACTGTTAGAA | 1.03
CGAGATTCTT | 0.987
CGGAATTTAG | 1.01
CTGTATACG | 1.03

Sequence | switch fluorescence ratio
AGTCCCCCTG | 4.37
AATTGAGAGT | 0.993
AGCAGCGGGA | 1
TCGTCCTTCT | 0.998
GAATATGGCA | 1.01
CCCAAGTCGA | 1.14
GACTCTGTAA | 3.16
CGAATTCTAG | 0.965
GTTCGGGGCA | 0.987
ATCAGGTCTC | 0.976
TGATGCATCT | 1.01
AAGGGTGTGG | 0.954
TTGTGTTGAT | 1.06
CCTAGTCAGC | 1.19
GAGCATTTCA | 1.01
GGCTCCCGGT | 1.05
GCTGCATGGC | 1.13
TCAGATGCCT | 0.963
TTAGGGATG | 1.06
TCCACATACC | 1.5
AGACTTATGA | 0.987
GGTCAGCGCC | 1
TTTCCCCGGG | 1.08

Sequence | switch fluorescence ratio
TATAAAGGTC | 1.03
GCGCGGGCGG | 0.978
GTTAGTGCTG | 0.997
GGGTACCGGA | 0.982
TGAACCATGG | 0.957
GGTTAAATGA | 1.04
GACCTCCTTT | 1.07
GGCCCTGGAC | 1
ACGAACGTCC | 1.28
AGTAATGCCA | 0.945
GGTATTCTA | 0.985
TATAGAAGTC | 1.04
GTTAGCACTG | 1.08
CTACATTAAT | 1.07
GTTTCGTTTG | 0.972
GGGTGTGGTT | 1.01
TTGGAGCATA | 2.45
ATAGTCCCT | 1.04
AAGGGTACG | 1
TTTGTAATCC | 1.38
CGAAGCACAA | 4.32
TACCGGTTCC | 1.03
CGCCTAAGTG | 1.01

Sequence | switch fluorescence ratio
ATTTATAGTC | 1
TTTTCCAGGA | 0.998
CATGGGCTAA | 1.02
CAAGAATGAT | 0.983
TCAAGTTTT | 1.11
GGCCTAATTG | 1.02
GCCAGAGTGC | 1.18
GGCATTCGGT | 0.99
TTGCCTTCG | 1.31
CTGGTACAAC | 1.03
ACGTGTGGTC | 1
AGTAGTGGTT | 0.935
TAGAGCATAG | 1.08
AAAGTGCTAC | 1.03
ACGAGAAAT | 1.07
CCGAGGAGCC | 1.03
GTGATCTTGT | 0.954
TCAAGATGG | 0.987
ACTGCGTCGC | 1.04
ATTAGAGAAT | 0.975
ATTCGTTTGG | 0.943
ACCAAAATAA | 1.09
TTAATACCTG | 1.04

Sequence | switch fluorescence ratio
TTCGCACATA | 2.17
GATATCAATG | 0.999
ATATGCACAG | 1.02
TACCAACAGG | 1.1
TGAGATGGGT | 0.963
CGGGAGTGAG | 1
TATAAAATTT | 0.973
GGCTCTCAGG | 1.04
TAGATTGTTG | 0.96
CCCTGCACAT | 3.51
GCCACCGTAC | 1.89
GGTTCCGGCA | 1
GATAGAGAAT | 0.953
GATTGCAAAC | 1.89
TGAATCACGG | 1.03
AGTCCCGAGT | 0.979
ATTAGGCCCG | 0.95
AATATGGTGG | 0.985
ATGAGGGCAT | 0.984
